The target in one assay is T1, mouse TREM2 on cells (mouse, UniProt Q99NH8 19-227).
T1 construct: whole, on cells; Used for the recombinant protein on BWZ/BW cells (with mouse DAP12) and for the native protein on mouse macrophages and dendritic cells; the cell type stands under assay; also called mTREM2; mTrem2
T1 sequence (looked up): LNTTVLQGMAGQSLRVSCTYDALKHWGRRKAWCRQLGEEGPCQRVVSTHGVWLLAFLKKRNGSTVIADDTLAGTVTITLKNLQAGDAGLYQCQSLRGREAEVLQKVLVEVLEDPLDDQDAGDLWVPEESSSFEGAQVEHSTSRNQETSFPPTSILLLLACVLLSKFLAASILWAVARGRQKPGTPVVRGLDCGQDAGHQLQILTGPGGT
The assay can be described thus: FACS, mTrem2 cells. In general terms: In flow cytometry, cells or beads pass a laser one at a time.

For assay [1], the target named is T2, human monomeric His tagged TREM2 protein (human, UniProt Q9NZC2 19-174).
T2 construct: also called hTREM2-HIS
T2 sequence: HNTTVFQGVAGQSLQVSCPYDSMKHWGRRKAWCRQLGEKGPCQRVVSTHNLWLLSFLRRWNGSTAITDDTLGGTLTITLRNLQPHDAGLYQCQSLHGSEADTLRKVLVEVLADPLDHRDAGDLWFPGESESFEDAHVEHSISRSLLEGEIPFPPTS
Kind of assay: ForteBio or MSD-SET, monovalent. (In general: Biolayer interferometry detects binding as a change in optical thickness at a sensor tip.)

Assay [2] has as its target T3, human TREM2 Fc fusion protein (human, UniProt Q9NZC2 19-174).
T3 construct: also called hTREM2-Fc; not shown: Fc part not specified
T3 sequence: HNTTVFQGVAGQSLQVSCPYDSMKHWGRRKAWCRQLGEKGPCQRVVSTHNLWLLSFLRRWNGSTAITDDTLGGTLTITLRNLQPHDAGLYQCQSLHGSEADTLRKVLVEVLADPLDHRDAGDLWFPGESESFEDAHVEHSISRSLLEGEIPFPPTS
Kind of assay: ForteBio or MSD-SET, avid.

For assay [3], the target named is T4, mouse TREM2 Fc fusion protein (mouse, UniProt Q99NH8 19-171).
T4 construct: also called mTREM2-Fc; not shown: Fc part not specified
T4 sequence (looked up): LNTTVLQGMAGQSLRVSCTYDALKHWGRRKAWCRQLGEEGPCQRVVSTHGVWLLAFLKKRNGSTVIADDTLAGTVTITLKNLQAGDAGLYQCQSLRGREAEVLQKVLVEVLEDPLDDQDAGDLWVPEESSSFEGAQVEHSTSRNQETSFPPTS
Kind of assay: ForteBio or MSD-SET, avid.

B1: Ab59 (antibody, human IgG1, V domains shown)
VH: [… about 100 residues …]GGVWYSLFDIWGQGTMVTVSS
VL: DIQMTQSPSSLSASVGDRVTITCQASQDISNYLNWYQQKPGKAPKLLIYDASNLETGVPSRFSGSGSGTDFTFTISSLQPEDIATYYCQQHIALPFTFGGGTKVEIK
notes: human IgG1
As to B1, the MFI with mouse TREM2 on cells is 3900 MFI. Moreover, the Kd in assay [1] stood at 5.72 nM; in assay [2], 0.854 nM.

B2: Ab23 (antibody, human IgG1, V domains shown)
VH: [… about 100 residues …]LGGHSMDVWGQGTTVTVSS
VL: DIVMTQSPDSLAVSLGERATINCKSSQSVLYSSNNKNYLAWYQQKPGQPPKLLISWASTRESGVPDRFSGSGSGTDFTLTISSLQAEDVAVYYCQQAYLPPITFGGGTKVEIK
notes: human IgG1
Turning to B2, the MFI with mouse TREM2 on cells is 919 MFI. For the same molecule, the dissociation constant Kd in assay [2] stood at 0.967 nM; in assay [3], 6.83 nM.

A word on the Kd: it is a measure of binding affinity in units of concentration.

Values taken from patent publication US20260209350A1 (Alector, published 2026).
